The campaign covered roughly 310,000 compounds. About 14,000 (4.5%) showed an effect of 50% or more. Effects have a minus sign here. Some of the results follow.
target: human ether-à-go-go-related gene (hERG) potassium channel (human, UniProt Q12809); assay: primary screen, population patch clamp on CHO cells stably expressing hERG
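Note: peak tail current of the secondary pulse compared with the same well before compound.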

Sequence of human ether-à-go-go-related gene (hERG) potassium channel (Q12809 whole entry, looked up): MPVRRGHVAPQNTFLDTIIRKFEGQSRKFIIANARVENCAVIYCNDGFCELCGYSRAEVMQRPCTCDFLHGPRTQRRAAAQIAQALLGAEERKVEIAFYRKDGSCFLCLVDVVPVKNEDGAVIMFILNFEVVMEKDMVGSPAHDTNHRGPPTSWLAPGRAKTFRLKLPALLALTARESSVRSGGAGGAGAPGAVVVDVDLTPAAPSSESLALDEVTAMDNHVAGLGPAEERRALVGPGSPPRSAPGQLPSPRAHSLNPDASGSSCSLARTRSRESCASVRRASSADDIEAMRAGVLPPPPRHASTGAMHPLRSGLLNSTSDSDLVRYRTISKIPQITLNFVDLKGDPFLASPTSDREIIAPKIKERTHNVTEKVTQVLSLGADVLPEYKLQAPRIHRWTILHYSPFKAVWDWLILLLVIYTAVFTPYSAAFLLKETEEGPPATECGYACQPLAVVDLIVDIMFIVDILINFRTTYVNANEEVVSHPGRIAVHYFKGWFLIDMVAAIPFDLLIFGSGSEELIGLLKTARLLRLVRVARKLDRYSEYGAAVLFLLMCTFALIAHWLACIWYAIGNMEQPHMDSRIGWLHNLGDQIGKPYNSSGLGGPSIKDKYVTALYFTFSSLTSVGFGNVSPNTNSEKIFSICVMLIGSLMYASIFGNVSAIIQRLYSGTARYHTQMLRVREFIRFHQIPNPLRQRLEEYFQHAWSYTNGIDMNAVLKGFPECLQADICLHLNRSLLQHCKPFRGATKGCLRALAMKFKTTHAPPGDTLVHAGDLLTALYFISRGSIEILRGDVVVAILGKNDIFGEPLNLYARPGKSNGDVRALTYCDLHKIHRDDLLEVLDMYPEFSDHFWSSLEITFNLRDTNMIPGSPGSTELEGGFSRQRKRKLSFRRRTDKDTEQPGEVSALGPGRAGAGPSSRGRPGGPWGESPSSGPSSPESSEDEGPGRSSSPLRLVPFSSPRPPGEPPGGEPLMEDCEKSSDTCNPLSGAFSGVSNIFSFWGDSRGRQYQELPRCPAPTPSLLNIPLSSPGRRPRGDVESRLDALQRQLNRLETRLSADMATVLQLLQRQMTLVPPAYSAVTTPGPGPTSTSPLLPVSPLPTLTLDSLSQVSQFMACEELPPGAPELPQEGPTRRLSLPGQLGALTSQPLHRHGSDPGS

Structure (SMILES)	hERG current change (%, negative = inhibition) at 10uM
O=C(c1ccccc1)c1c(O)cc(-c2ccccc2)oc1=O	12.1%
CCOC(=O)COn1c(=O)c(-c2ccc(C)cc2)[n+]([O-])c2ccccc21	20.1%
CCC(=O)Nc1ccc(NC(=O)c2ccc3ccccc3c2)cc1	20.3%
O=C(CCN1C(=O)C2CC=CCC2C1=O)Nc1nccs1 (centres unmarked)	-3.6%
COc1ccc(OC)c(-n2c(CN3CCC(C(N)=O)CC3)nc3ccccc3c2=O)c1	-0.126%
COc1ccc(C(=O)N2CCCC(N3CCN(c4ccccc4OC)CC3)C2)c(OC)n1 (centres unmarked)	4.8%
CCOC(=O)COc1nc2c(c(-c3ccco3)c1C#N)CCc1ccccc1-2	7.82%
Cc1cc(N2CCOCC2)nc2ccc(NC(=O)CCC(=O)N3CCN(c4ccccc4)CC3)cc12	-18.3%
CC1CCN(S(=O)(=O)c2cccc(C(=O)N3CCN(c4ccc(F)cc4)CC3)c2)CC1	-65.4%
Cc1ccc(C)c(NC2=C(Cl)C(=O)OC2OC(=O)c2ccco2)c1 (centres unmarked)	-23.2%
COc1ccc(/C=C/C(=O)NC(=S)NNC(=O)c2cc(OC)c(OC)c(OC)c2)cc1OC	0.258%
O=C1N/C(=N/N=C/c2ccccc2)SC1(c1ccccc1)c1ccccc1	4.87%
O=C(O)c1ccc(/C=N/NC(=S)NCCN2CCOCC2)cc1	12.3%
CCCC(=O)Nc1c2c(nn1-c1ccc(F)cc1)CS(=O)(=O)C2	3.76%
CC(=O)OC(C(=O)NC1CCCCC1)c1ccncc1 (centres unmarked)	-11.7%
COc1cc(-c2noc(C)c2C#Cc2ccsc2)cc(OC)c1OC	10.8%
O=C(N/N=C/c1ccc(Cl)cc1Cl)Nc1ccccc1	25%
Cn1c(=O)n(CCc2ccccc2)c(=O)c2c1ncn2Cc1ccccc1	0.416%
C=CCOc1c2ccc(C(=O)NCCc3ccc(C)cc3)cc2nn1C	-2.67%
O=C1NC(=O)C2(Cc3ccccc3N3CCCC32)C(=O)N1Cc1ccccc1 (centres unmarked)	1.61%
CC(=NC(C)C)C1=C(O)CCC1=O	7.34%
O=C(NNC(=O)C1CCC1)c1ccccc1	0.231%

Structure (SMILES)	hERG current change (%, negative = inhibition) at 10uM
CCOC(=O)c1oc2cc(OC(C)=O)ccc2c(=O)c1-c1ccc(OC)c(OC)c1	-6.73%
CCCCc1ccc(Nc2nc(N3CCOCC3)nc(N3CCOCC3)n2)cc1.Cl	12.7%
CCOC(=O)CNC(=O)CSc1nnc(-c2ccco2)n1N	15.8%
CC(C)OC(=O)C1C(=O)CC(C)(O)C(C(=O)OC(C)C)C1c1cccc(O)c1 (centres unmarked)	-15.7%
COc1cc2ccccc2cc1C(=O)NCCCN1CCOCC1	-5.9%
OCC1(Cc2cccc(Cl)c2)CCCN(Cc2ccc(F)c(F)c2)C1 (centres unmarked)	-51.2%
Cc1ccccc1OCCN1C(=O)NC2(CCc3ccccc32)C1=O (centres unmarked)	-20.2%
CC(=O)c1ccc(NC(=O)c2ccc(COc3ccccc3[N+](=O)[O-])o2)cc1	-8.46%
CCC12CN3CCN(CC(C3)/C1=N\O)C2	-0.612%
COc1ccc(/C=C/C(=O)OCc2nc3ccccc3c(=O)[nH]2)c(OC)c1	-7.69%
COc1ccc2c(c1)c(CC(=O)Nc1ccc(C)cc1)c(C)n2C(=O)c1ccc(Cl)cc1	-20.4%
N#C/C(=C\c1c(Cl)cccc1Cl)c1nn(-c2ccccc2)c(-n2cccc2)c1C#N	9.9%
CCOc1ccc(NS(=O)(=O)c2ccc3[nH]cc(C(=O)N(CC)CC)c(=O)c3c2)cc1	-36.1%
CC(C)(C(=O)N[C@H](CO)c1ccccc1)C(=O)N[C@H](CO)c1ccccc1	3.12%
O=S(=O)(c1ccccc1)c1ccc(N2CCCCCC2)cc1	-3.76%
Cc1c(C(=O)NCc2ccccc2)oc2c1C(=O)CCC2	-6.1%
CCN(C(=O)COC(=O)c1cnc(C)cn1)c1c(N)n(Cc2ccccc2)c(=O)[nH]c1=O	10%
CC1=C(C(=O)NCc2ccccc2)C(c2ccc(C)o2)n2ncnc2N1 (centres unmarked)	-11.2%
N#CC1=C(N)Oc2n[nH]c(-c3cccs3)c2C1c1ccncc1 (centres unmarked)	-0.917%
CCN(CC(=O)NCc1ccc(F)cc1)C(=O)c1ccc(COc2ccccc2)cc1	-47.9%
O=S(=O)(Nc1cc(S(=O)(=O)N2CCOCC2)ccc1N1CCCC1)c1cccs1	-4.49%
CCN(CC)C(=O)CCc1nc2sc3c(c2c(=O)[nH]1)CCCC3	-4.13%

From paper PMC4336329 (PLoS ONE, 2015)
